The test system of this series is ATP. The experiment in a line: switch fluorescence ratio, 500 uM ATP over buffer (Cy3 cluster intensity, sum of 5 cycles each) (fold (ratio)); higher = stronger signal-on switching upon ATP binding; sequences stand for … in TCGTCGGCAGCGTCAGATGTGTATAAGAGACAGTTTTTTTTTTTTTTTTTTTTTTTTT…TC. The conditions noted are these: aptamer strand: ATP DNA aptamer (quencher-CACCTGGGGGAGTATTGCGGAGGAAGG + anchor), 100 nM annealed; ATP concentration: 500 uM; one replicate. The procedure, abridged:
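Values give the fluorescence ratio for each switch-domain sequence, averaged from per-cluster ratios of summed target-cycle to summed buffer-cycle Cy3 intensity. The Cy3-labelled switching-strand clusters sat on a modified Illumina MiSeq flow-cell, were annealed to 100 nM quencher-labelled ATP aptamer, and were imaged in selection buffer, then after 15 min with 500 uM ATP at 22 °C. Five cycles ran with NaOH stripping and re-annealing between them, and clusters outside 100-1000 RFU were excluded.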

Values marked as one replicate rest on one cluster of the flow cell; about a third of the high ones do not repeat.
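Note: ATP exposure 15 min at 22 °C before imaging.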

CGCGGCCTGA: the switch fluorescence ratio is 1.

Turning to TTTATGGTCT, the switch fluorescence ratio amounted to 1.04.

On to TCTAGTTGCT, for which the switch fluorescence ratio came to 1.01.

Regarding CAGTCCTGCT, the switch fluorescence ratio came to 0.974.

Consider ATTCATATG, for which the switch fluorescence ratio was 1.03.

With GGGGGCCAAC, the switch fluorescence ratio stood at 0.99.

In the case of AAGTCGTGTG, the switch fluorescence ratio turned out to be 0.974.

On to TGCCACGGTG, for which the switch fluorescence ratio stood at 2.16.

Consider CCGGACGGCA, for which the switch fluorescence ratio was determined as 1.07.

On to AAATATTACG, for which the switch fluorescence ratio was determined as 0.979.

Take CAGGAGGGTT: the switch fluorescence ratio was 0.975.

Regarding TACTATCAGG, the switch fluorescence ratio was 1.23.

For AGAGGTTCCG, the switch fluorescence ratio turned out to be 0.908.

GCCGCTTGGT: the switch fluorescence ratio worked out at 0.995.

Regarding TTCCGCACTA, the switch fluorescence ratio worked out at 1.47.

As for ATCGTTTCAG, the switch fluorescence ratio stood at 0.952.

As for AACATTTCGA, the switch fluorescence ratio turned out to be 1.08.

Take TGTTAGACCT: the switch fluorescence ratio is 1.27.

ATTTTAAATC: the switch fluorescence ratio came to 1.02.

Take CCCAAACCGC: the switch fluorescence ratio turned out to be 1.18.

Take CTTAGATTC: the switch fluorescence ratio is 1.

Consider CGGTACTGTT, for which the switch fluorescence ratio amounted to 1.01.

Take CTGGAACCGC: the switch fluorescence ratio worked out at 3.67.

Turning to TTGCTCCGCC, the switch fluorescence ratio stood at 1.02.

For TCCGACCCA, the switch fluorescence ratio was found to be 2.41.

Consider ATATATGTTA, for which the switch fluorescence ratio came out at 1.01.

As to AGCCACTTCC, the switch fluorescence ratio was 2.35.

In the case of TCAAATGTAG, the switch fluorescence ratio was found to be 0.985.

As for CAAATCCACA, the switch fluorescence ratio worked out at 1.04.

For TATTATGCCC, the switch fluorescence ratio was determined as 1.02.

Consider CGTTTCCCCT, for which the switch fluorescence ratio turned out to be 1.27.

Regarding TGATTAAGGT, the switch fluorescence ratio turned out to be 1.03.

With GATACTGGTA, the switch fluorescence ratio came to 1.07.

Take TGTAGGGTTA: the switch fluorescence ratio stood at 1.

For GAGAAGCACT, the switch fluorescence ratio came to 1.02.

For GCGGGTTGTA, the switch fluorescence ratio was determined as 1.

For the sequence TGATTGTG, the switch fluorescence ratio is 1.01.

Turning to TTATTTTTCC, the switch fluorescence ratio came to 0.975.

With ACGTAGGCCT, the switch fluorescence ratio is 1.14.

Turning to TTTTGCTAGA, the switch fluorescence ratio came to 1.01.

Take GGTAGCCAGG: the switch fluorescence ratio stood at 1.04.

Consider TTTAGCACCT, for which the switch fluorescence ratio was 1.18.

In the case of GTAAGTTACG, the switch fluorescence ratio came to 0.992.

As to CGTGACGGAA, the switch fluorescence ratio is 1.

Take GATTGTCGCG: the switch fluorescence ratio came out at 0.989.

Take CGCGCCACCG: the switch fluorescence ratio was determined as 1.05.

With GGTGTATATC, the switch fluorescence ratio came to 0.976.

On to TTTTATACTA, for which the switch fluorescence ratio amounted to 1.06.

For TCATATGAGG, the switch fluorescence ratio was found to be 0.999.

Consider TTTGCGTTTG, for which the switch fluorescence ratio was 0.916.

On to CTCTAGATAT, for which the switch fluorescence ratio came out at 1.75.

As for GACCAGCGGA, the switch fluorescence ratio worked out at 1.01.

Turning to GTTTTGGATT, the switch fluorescence ratio is 1.01.

In the case of CGGTAAGCCA, the switch fluorescence ratio is 0.98.

Regarding TCCCGAGGCT, the switch fluorescence ratio stood at 1.25.

With GACTTAAGGA, the switch fluorescence ratio worked out at 0.958.

TGTCACAATA: the switch fluorescence ratio was 1.01.

As for GAGAAAATG, the switch fluorescence ratio was found to be 1.01.

As for CCCAAAAGGG, the switch fluorescence ratio is 0.991.

Take CTGAGTCGCG: the switch fluorescence ratio was found to be 0.997.

With TACTTTTCAT, the switch fluorescence ratio worked out at 0.973.

For AGCACTCCAT, the switch fluorescence ratio is 1.13.

Regarding ATGATTTTAT, the switch fluorescence ratio came out at 0.997.

As for TATCGAGGGC, the switch fluorescence ratio amounted to 1.01.

Turning to ATACCAACTC, the switch fluorescence ratio is 1.15.

As to TCTAGGGCTA, the switch fluorescence ratio came to 1.01.

Turning to CGGAGGGCAG, the switch fluorescence ratio worked out at 1.02.

On to TTGAGGAGAA, for which the switch fluorescence ratio is 0.955.

Regarding TTTAGAATGA, the switch fluorescence ratio is 1.04.

As for CCGCTCTCGG, the switch fluorescence ratio came to 1.1.

Regarding TGCCACTTTT, the switch fluorescence ratio is 0.967.

GCTGTGGAGC: the switch fluorescence ratio turned out to be 1.01.

On to AGCGAGATTT, for which the switch fluorescence ratio came out at 0.929.

Consider CCCCAATCA, for which the switch fluorescence ratio was 1.47.

With GGCGCCCTCG, the switch fluorescence ratio worked out at 0.98.

CGGTCAGAGA: the switch fluorescence ratio stood at 0.965.

Regarding ATGGTACGGA, the switch fluorescence ratio came out at 1.1.

Consider GTGGAGGTGC, for which the switch fluorescence ratio amounted to 1.14.

As for GGGTATCCCG, the switch fluorescence ratio came to 0.977.

Take CTATATTGCC: the switch fluorescence ratio came out at 1.02.

Regarding CACCAAGCCC, the switch fluorescence ratio turned out to be 1.08.

CCATTCTTTA: the switch fluorescence ratio was determined as 0.974.

As for GAGGCTGCGT, the switch fluorescence ratio stood at 0.976.

For the sequence ATGCCTGAAG, the switch fluorescence ratio was 0.948.

On to CAAGACTCTT, for which the switch fluorescence ratio worked out at 0.986.

As to AGAGAATTGA, the switch fluorescence ratio came out at 0.974.

In the case of CAGGCGTTGG, the switch fluorescence ratio is 0.949.

Take TCGAAAATTT: the switch fluorescence ratio stood at 1.

With AGAGCTAAAA, the switch fluorescence ratio turned out to be 0.996.

Take TAGTCTACT: the switch fluorescence ratio stood at 1.05.

Turning to CATTACCTTT, the switch fluorescence ratio amounted to 0.978.

As for TTTGAACCAT, the switch fluorescence ratio amounted to 0.971.

Consider CTTAAGTTTA, for which the switch fluorescence ratio worked out at 1.51.

As to TACTATAATG, the switch fluorescence ratio came to 1.02.

On to CGGCTCAATA, for which the switch fluorescence ratio was found to be 1.43.

Consider GAACTAGGCT, for which the switch fluorescence ratio turned out to be 0.998.

Turning to AGATGGGAT, the switch fluorescence ratio was 0.993.

As for GAGCATATTT, the switch fluorescence ratio was determined as 1.41.

Turning to CCGGGCTTCG, the switch fluorescence ratio was determined as 1.05.

Regarding TGGGCTGC, the switch fluorescence ratio is 1.04.

TTCTACCAAA: the switch fluorescence ratio was 1.09.

Take GTGTTCTATT: the switch fluorescence ratio was determined as 0.972.

On to GCCGTGGCT, for which the switch fluorescence ratio is 1.05.

Consider AAAAGTCCTT, for which the switch fluorescence ratio worked out at 1.07.

As for AAGTGGAGCT, the switch fluorescence ratio came out at 1.02.

As for GCCGTGGGCT, the switch fluorescence ratio worked out at 0.96.

As for CTGAGGGAC, the switch fluorescence ratio came out at 1.01.

As for GCGGGTTC, the switch fluorescence ratio was 0.927.

CGTTCAGTAT: the switch fluorescence ratio was 1.01.

As for AATCCACATT, the switch fluorescence ratio came to 1.07.

In the case of CGCCTAACTC, the switch fluorescence ratio came out at 1.58.

In the case of GTCAATCGAG, the switch fluorescence ratio worked out at 1.03.

With TTATTCTACT, the switch fluorescence ratio stood at 1.02.

Take CGCTAATAGA: the switch fluorescence ratio stood at 1.01.

With ACGTACACCT, the switch fluorescence ratio came to 1.47.

With GTTAGGTTCT, the switch fluorescence ratio came out at 1.02.

For the sequence TTATATTCGG, the switch fluorescence ratio was found to be 0.973.

Consider CACATCTACT, for which the switch fluorescence ratio was determined as 1.11.

Take TAGGCTCCGG: the switch fluorescence ratio worked out at 0.99.

As for AATAGCCGTG, the switch fluorescence ratio came to 0.99.

The record behind these values is the supplement of paper PMC10126150.
